These results are taken from the supplement of paper PMC10441789.

The list shows a part of the results. Antibody binding of pooled human sera (four to six donors per pool; dilution not stated) to peptides of the Trypanosoma cruzi antigen TSSA on microarrays. Quantile-normalised fluorescence in arbitrary units, mean of duplicate arrays; higher = more binding. No active / inactive call. The uninfected pools are read here as the healthy donors of the same country. The strongest signals lie near the top of the scale (about 60,000).

For the experiment, the system named is pooled sera of chronic Chagas disease patients, Argentina. Briefly: antibody binding signal (normalised fluorescence) (arbitrary fluorescence units); higher = stronger serum antibody binding to peptide. Here is the method: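 Microarray of 15-residue peptides over residues 30-55 of Trypanosoma cruzi TSSAII, each with 1 to 10 substitutions at naturally variable positions, probed with one serum pool per country.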
Turning to SGKDNKAATGETPSP, the antibody binding signal worked out at 2440.
For TPPSGKENKAAAGGA, the antibody binding signal was 10100.
Consider TPPSGTDNKPAAGEA, for which the antibody binding signal amounted to 46900.
Take TDNKPATGGTPSPPG: the antibody binding signal stood at 926.
To GKDNKAAAGEAPSPP belongs 2810; to TSSTPPSGKENKPAT, 20500; to DNKAAAGEAPSQPGA, 7220.
As to GKEKKTATGGTPSPS, the antibody binding signal is 1220.
The sequence GKENKAAAGGTPSQS returned an antibody binding signal of 1660.
To GKDKKTATGETPSPP belongs 1630; to TPPSGKDKKPAAGET, 16800; to PPSGTDNKAAAGEAP, 24900.
As for SGTEKKPAAGGTPSP, the figure is 2470; as for DKKPATGETPSQSGA, 32400; as for KENKPAAGGTPSQSG, 190.
For PPSGTDNKPAAGEAP, the antibody binding signal was 25800.
To KDNKTATGETPSPSG belongs 946; to KKAAAGETPSQPGAS, 249.
As for NKAATGGTPSQPGAS, the figure is 467; as for KENKPAAGEAPSPSG, 299.
To GKDNKTATGGAPSQP belongs 953; to GKEKKAAAGGTPSQS, 1080; to GTENKTATGGAPSQS, 25300.
On to KDKKAAAGGAPSPSG, for which the antibody binding signal came to 221.
As for PSGKEKKTAAGGTPS, the figure is 4560.
To GKDKKPATGETPSQP belongs 25200.
For the sequence SGTEKKTAAGGAPSQ, the antibody binding signal was 514.
Regarding DKKPAAGGAPSPSGA, the antibody binding signal stood at 899.
As for PSGTENKAAAGETPS, the figure is 46800; as for GTEKKAAAGGAPSQS, 361.
To SSTPPSGTDNKPAAG belongs 53900; to GKENKTAAGGAPSPP, 828; to TEKKTATGGTPSQPG, 1190.
Turning to TEKKAATGGAPSQSG, the antibody binding signal came out at 1890.
To PSGKENKTATGETPS belongs 4250; to GTENKTAAGGAPSPS, 33100.
To GTENKAAAGGTPSQS belongs 40300.
To KKTAAGGTPSPPGAS belongs 279; to TEKKTATGGTPSPSG, 1020; to TPPSGTDNKAATGGA, 49600.
